In the supplement of paper PMC9334596:
Where “and” joins values, the source holds several entries; their conditions need not be identical. Equal entries are not always repeated. In all, about 5,300 compounds were measured (“PER2::LUC luminescence relative to vehicle control”: median about 0.96, highest 2% from about 1.3 on). Some of the results follow.

Tested on: mPer2Luc MEF
Assay: PER2::LUC luminescence relative to vehicle control (fold of vehicle); higher = higher PER2::LUC reporter signal
Settings: 10 µM
Procedure, shortened: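 The value is PER2::LUC luminescence expressed as fold of vehicle control. Mouse embryonic fibroblasts carrying the mPer2Luc reporter were seeded at ~3000 cells per well in 384-well plates and grown in DMEM with 10% FBS at 37 °C and 5% CO2. Compounds from commercial libraries were added at 10 μM 48 h after seeding, and luminescence was read with the ONE-Glo luciferase assay system 24 h and 30 h after treatment, followed by an alamarBlue viability assay.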

SMILES	PER2::LUC luminescence (time after treatment 24 h)	PER2::LUC luminescence (time after treatment 30 h)
Cn1cncc1[C@@](N)(c1ccc(Cl)cc1)c1ccc2c(c1)c(-c1cccc(Cl)c1)cc(=O)n2C	0.442	0.719
Cc1nnc(SCC2=C(C(=O)O)N3C(=O)[C@@H](NC(=O)Cn4cnnn4)[C@H]3SC2)s1	0.812	0.938
Cc1cc(C#N)cc(C)c1Oc1nc(Nc2ccc(C#N)cc2)nc(N)c1Br	0.733 and 0.457	0.829 and 0.664
CN(C)CC[C@@H](c1ccc(Br)cc1)c1ccccn1	0.821	0.886
c1cc(CN2CCCNCCNCCCNCC2)ccc1CN1CCCNCCNCCCNCC1	0.906 and 0.99	1.04 and 0.94
O=C1OC(=O)[C@H]2[C@@H]1[C@@H]1CC[C@H]2O1	0.92	0.838
O=C(NNc1ccccc1)c1ccncc1	1.04 and 0.927	1.06 and 0.975
CCNC(=O)c1cc2c(-c3cc(OCCN4CCCC4)c(Cl)cc3Cl)nc(N)nc2s1	0.289	0.287
CC(C)n1cnc2c(NCCc3ccc(O)cc3)nc(-c3csc4ccccc34)nc21	0.699	0.805
CC(C)NC(=N)NC(=N)Nc1ccc(Cl)cc1	0.554 and 0.353	–
C[C@]12CCC3c4ccc(OS(=O)(=O)O)cc4CCC3C1CC[C@H]2O (stereo not given in full)	1.08	0.98
CCCOc1ccc(Br)cc1-c1cc(-c2ccc(Cl)cc2)[nH]c1-c1ccncc1	1.02	1.02
C=C[C@@](C)(/C=C/c1ccc(O)cc1)CCC=C(C)C	1.05	1.09
CC(C)[C@@H]1CC[C@@H](C)CC1=O	1	0.944
Cc1ccccc1C(=O)Nc1ccc(C(=O)N2CCCC(N(C)C)c3ccccc32)cc1 (stereo not given)	0.95	1
Cc1cccc(-c2[nH]ncc2-c2ccc3ncccc3n2)n1	0.816	0.627
CC1=CC2C(CC1=O)C(C)=CCC2C(C)C (stereo not given)	0.962	0.981
O=C(NCCCNc1nc(Nc2cccc(NC(=O)N3CCCC3)c2)ncc1I)c1cccs1	0.389	0.302
N=C(CC(O)COc1ccccc1-c1ccccc1)N1CCCCC1 (stereo not given)	0.648	0.844
CN(Cc1ccc(C(C)(C)C)cc1)Cc1cccc2ccccc12	0.911	1.04
NCCCCN	0.884	0.911
COc1cc2c(cc1OC)[C@@H]1C(=O)c3ccc4c(c3O[C@@H]1CO2)C=CC(C)(C)O4	0.176	0.244

SMILES	PER2::LUC luminescence (time after treatment 24 h)	PER2::LUC luminescence (time after treatment 30 h)
NCc1ccc(C(=O)O)cc1	1.06	1
S=c1[nH]cnc2nc[nH]c12	0.814 and 0.755	0.655 and 0.623
C=C(C)[C@@H]1CC[C@]2(C)CC[C@]3(C)[C@H](CC[C@@H]4[C@@]5(C)CC[C@H](O)C(C)(C)[C@@H]5CC[C@]43C)[C@@H]12	1.15	1.06
CCCCCCCCNC(C)C(O)c1ccc(SC(C)C)cc1 (stereo not given)	0.741	0.727
CC(=O)CC(c1ccc([N+](=O)[O-])cc1)c1c(O)c2ccccc2oc1=O (stereo not given)	0.967	0.923
C[C@H]1O[C@@H](O[C@H]2[C@@H](O)C[C@H](O[C@H]3[C@@H](O)C[C@H](O[C@H]4CC[C@@]5(C)[C@H](CC[C@@H]6[C@@H]5CC[C@]5(C)[C@@H](C7=CC(=O)OC7)CC[C@]65O)C4)O[C@@H]3C)O[C@@H]2C)C[C@H](O)[C@@H]1O	0.856	0.66
NS(=O)(=O)c1ccc(NC(=O)Nc2ccc(F)cc2)cc1	0.923	0.905
C[C@H](NC(=O)CCc1nc2ccccc2c(=O)[nH]1)c1ccccc1	0.998	0.986
NCC(=O)CCC(=O)O	0.963 and 0.878	1.01 and 0.932
COc1ccc(CNc2nc(N(CCO)CCO)nc3c2ncn3C(C)C)cc1	0.6	0.774
NC(=O)c1ccc[n+]([C@@H]2O[C@H](COP(=O)([O-])OP(=O)(O)OC[C@H]3O[C@@H](n4cnc5c(N)ncnc54)[C@H](O)[C@@H]3O)[C@@H](O)[C@H]2O)c1	0.815 and 0.843	1.03 and 0.854
CN1CCC(CNc2ccc3ncc(-c4cccc(OC(F)(F)F)c4)n3n2)CC1	0.259	0.368
COc1c2ccoc2cc2oc(C)cc(=O)c12	0.992	0.989
Cc1ccc(Sc2ccccc2N2CCNCC2)c(C)c1	0.563 and 0.516	0.652 and 0.612
Cc1cc2c(OCC(CNC(C)(C)C)OC(=O)c3ccccc3)cccc2[nH]1 (stereo not given)	1.06	0.999
O=C(Nc1ccccc1)N[C@@H]1C[C@@H](C(=O)O)Nc2cc(Cl)cc(Cl)c21	1.06	0.947
COc1ccc(CN(CCN(C)C)c2ncccn2)cc1	0.863	1.03
N=C(N)SCCc1ccc(CCSC(=N)N)cc1	0.935	1.08
COC(=O)c1c(C)c2c(c(C)c1O)OC(=O)c1c(C)c(Cl)c(O)c(Cl)c1O2	1.03	0.921
O=c1[nH]c2cc(Cl)ccc2c(O)c1-c1cccc(Oc2ccccc2)c1	0.996	0.891
Cc1ccc(C)c(OCCCC(C)(C)C(=O)O)c1	1.09	1.21
O=C(O)C[C@H](O)C[C@H](O)/C=C/c1c(C2CC2)nc2ccccc2c1-c1ccc(F)cc1	0.653 and 0.335	0.528 and 0.411

SMILES	PER2::LUC luminescence (time after treatment 24 h)	PER2::LUC luminescence (time after treatment 30 h)
O=C(CCCN1CCC(O)(c2ccc(Cl)cc2)CC1)c1ccc(F)cc1	0.822 and 0.754	1.14 and 0.661
COc1cc2c(cc1OC)[C@@H]1Cc3ccc(OC)c(OC)c3CN1CC2	0.985	1.01
N[C@](CCCCB(O)O)(CCN1CCCCC1)C(=O)O	1.07	1.08
CC1(C)[C@@H](O)CC[C@]2(C)[C@H]3C(=O)C=C4[C@@H]5C[C@@](C)(C(=O)O)CC[C@]5(C)CC[C@@]4(C)[C@]3(C)CC[C@@H]12	1.22 and 0.966	1.5 and 0.907
COC(=O)[C@@H](N)Cc1ccc(O)c(O)c1	0.941	0.816
COc1ccc2c(c1)c(CC(=O)O)c(C)n2Cc1ccc(Cl)cc1	0.942	0.921
C[C@]12CCC(=O)C=C1C=C[C@@H]1[C@@H]2CC[C@@]2(C)[C@H]1CC[C@@]21CCC(=O)O1	0.937	0.958
C[C@H]1COC2(CCN(c3nc(=O)c4cc(C(F)(F)F)cc([N+](=O)[O-])c4s3)CC2)O1 (racemic)	1.32	1.39
Nc1ccccc1NC(=O)CCCCCC(=O)Nc1ccccc1	0.675	0.932
Nc1ccncc1N	1.02	0.965
C[C@@H]1O[C@@H](OC[C@H]2O[C@@H](Oc3cc(O)c4c(c3)O[C@H](c3ccc(O)c(O)c3)CC4=O)[C@H](O)[C@@H](O)[C@@H]2O)[C@H](O)[C@H](O)[C@H]1O	1.05	1
COc1ccc(-c2coc3cc(O)ccc3c2=O)c(O)c1O	0.977	0.904
CCCCCC(=O)Cc1cc(O)cc(O)c1C(=O)Oc1cc(CC(=O)CCCCC)c(C(=O)O)c(OC)c1	1.23	1.25
O=C(O)c1ccc(-n2nc(-c3ccccc3O)nc2-c2ccccc2O)cc1	0.931 and 0.944	0.756 and 0.741
COc1c(C)c2c(c(O)c1C/C=C(\C)CCC(=O)OCCN1CCOCC1)C(=O)OC2	0.726	1.07
CN1C(C(=O)Nc2ccccn2)=C(O)c2ccccc2S1(=O)=O	0.849	1.03
NCCS	1.16 and 1	1.18 and 1.2
COCCOC(=O)C1=C(C)NC(C)=C(C(=O)OC(C)C)C1c1cccc([N+](=O)[O-])c1 (stereo not given)	1.13	1.17
O=C(NCc1cccc(O)c1)Nc1nc(-c2ccncc2)cs1	0.573	0.624
COc1cc(C(=O)NC2CCN(C)CC2)ccc1Nc1ncc2c(n1)N(C1CCCC1)CC(F)(F)C(=O)N2C	0.049	0.053
COC(=O)CCc1ccc(OCC(O)CNC(C)C)cc1 (stereo not given)	0.46	0.791
CC(N)(Cc1ccc(O)cc1)C(=O)O (racemic)	0.941	1.05

SMILES	PER2::LUC luminescence (time after treatment 24 h)	PER2::LUC luminescence (time after treatment 30 h)
COc1ccc(CCc2nc3cc(-c4c(C)noc4C)ccc3n2C[C@H](C)N2CCOCC2)cc1Cl	0.606	0.487
O=C(O)c1cc2cccc([N+](=O)[O-])c2[nH]1	1.04	0.985
Nc1nc(=O)c2c([nH]1)NC[C@H](CNc1ccc(C(=O)N[C@@H](CCC(=O)O)C(=O)O)cc1)N2C=O	0.779	0.952
COc1cc(/C=C(\C#N)C(=O)c2ccc(O)c(O)c2)cc(I)c1O	0.959	0.967
CCNC(=O)c1noc(-c2cc(C(C)C)c(O)cc2O)c1-c1ccc(CN2CCOCC2)cc1	0.047	0.021
COc1cccc(N(C)C(=S)Oc2ccc3c(c2)CCCC3)n1	0.614	0.655
CNCc1ccc(-c2[nH]c3cc(F)cc4c3c2CCNC4=O)cc1	1.03	1.03
NCCc1cc[nH]n1	1.05	1.09
CCCNC(C)C(=O)Nc1c(C)csc1C(=O)OC (stereo not given)	1	0.951
O=c1cc(-c2ccc(O)cc2)oc2cc(O[C@@H]3O[C@H](CO)[C@@H](O)[C@H](O)[C@H]3O)cc(O)c12	1.22	1.43
Cc1c(NC(C)C)c(=O)n(-c2ccccc2)n1C	0.851	0.837
Cc1cnc(-c2cnc(NCCNc3ccc(C#N)cn3)nc2-c2ccc(Cl)cc2Cl)[nH]1	1.56	1.06
N[C@@]1(C(=O)O)CN[C@@H](C(=O)O)C1	0.997	0.949
CN(C)CCN(Cc1ccc(Cl)cc1)c1ccccn1	0.304	0.599
C=C1/C(=C\C=C2/CCC[C@]3(C)[C@@H]([C@H](C)CC[C@@H](O)C(C)(C)O)CC[C@@H]23)C[C@@H](O)C[C@@H]1O	0.999	0.835
NS(=O)(=O)Cc1noc2ccccc12	0.993	0.829
COc1ccc2c(c1)C(=O)N(CCc1ccc(S(=O)(=O)NC(=O)NC3CCCCC3)cc1)C(=O)C2(C)C	0.931	1.05
C=CCc1ccc(O)c(-c2cc(CC=C)ccc2O)c1	1.07	0.949
CCCCCCCCCCOc1cc2c(O)c(C(=O)OCC)cnc2cc1OCC	0.758	1.1
COC(=O)[C@@H](N)CS	0.59	0.849
Cc1cn([C@H]2C[C@H](N=[N+]=[N-])[C@@H](CO)O2)c(=O)[nH]c1=O	1 and 0.851	0.854 and 0.886
COc1ccc([C@@H]2Sc3ccccc3N(CCN(C)C)C(=O)[C@@H]2OC(C)=O)cc1	0.861	0.812
